Laboratory results taken from patent publication US20260042865A1 (Amgen, published 2026).

What was measured:
Mouse IgG2a (mouse) [1] = assay: Octet (BLI), mouse IgG2a on streptavidin biosensor, pH 6, 2 uM CaCl2
Mouse IgG2a (mouse) [2] = assay: Octet (BLI), mouse IgG2a on streptavidin biosensor, pH 7.4, 2 mM CaCl2
Mouse IgG2a (mouse) [3] = assay: Octet (BLI); ratio of the pH 6/2 uM CaCl2 value to the pH 7.4/2 mM CaCl2 value (fits the ratio of kdiss)

Sequence of Mouse IgG2a (mouse) (P01863 whole entry, the tested form may be a part): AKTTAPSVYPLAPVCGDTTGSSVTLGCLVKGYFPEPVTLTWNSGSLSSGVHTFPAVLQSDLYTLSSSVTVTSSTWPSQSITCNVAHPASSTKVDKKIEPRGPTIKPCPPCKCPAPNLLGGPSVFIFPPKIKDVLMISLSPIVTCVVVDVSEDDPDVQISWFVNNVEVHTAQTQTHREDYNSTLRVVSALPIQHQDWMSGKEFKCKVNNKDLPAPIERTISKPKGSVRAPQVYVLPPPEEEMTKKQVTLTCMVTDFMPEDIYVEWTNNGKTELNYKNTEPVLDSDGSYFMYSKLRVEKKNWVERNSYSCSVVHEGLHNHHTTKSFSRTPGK

Kd (Mouse IgG2a (mouse) [1]) [nM] | koff (Mouse IgG2a (mouse) [1]) [s⁻¹] | kon (Mouse IgG2a (mouse) [1]) [M⁻¹ s⁻¹] | Kd (Mouse IgG2a (mouse) [2]) [nM] | koff (Mouse IgG2a (mouse) [2]) [s⁻¹] | kon (Mouse IgG2a (mouse) [2]) [M⁻¹ s⁻¹] | pH 6/pH 7.4 (Mouse IgG2a (mouse) [3]) | Binder
9.3 | 0.00068 | 74000 | 3 | 0.00024 | 81000 |  | Catabolic anti-mIgG2a 099 Fab-scFc (Fc fusion) heavy: EQLEESGGDLVKPGASLTLTCTASGFSFTSDYYMCWVRQAPGKGLEWIACIGAGDIHTTYYANWAKGRFTISKTSSTTVTLQMTTLTAADTATYFCARDTYNIGGYTGDFDLWGPGTLVTVSS[human IgG1 constant region cut from this listing]GGGGSGGGGSGGGGSGGGGSGGGGSGGGGS[human IgG1 Fc cut from this listing] light: ALVMTQPPASVSAAVGGTVTINCQASESISTWLAWYQQKPGQPPKLLIYYASTLASGVPSRFKGSGSGTQFTLTISGVECDDAATYYCAGHKSYSSDDFAFGGGTEVVVKGTVAAPSVFIFPPSDEQLKSGTASVVCLLNNFYPREAKVQWKVDNALQSGNSQESVTEQDSKDSTYSLSSTLTLSKADYEKHKVYACEVTHQGLSSPVTKSFNRGEC
580 | 0.01 | 17000 | 5 | 0.0002 | 40000 | 50 | Catabolic anti-mIgG2a 463 Fab-scFc (Fc fusion) heavy: EQLEESGGDLVKPGASLTLTCTASGFSFTSDYYHCWVRQAPGKGLEWIACIGAGDIHTTYYANWAKGRFTISKTSSTTVTLQMTTLTAADTATYFCARDTYNIGGYTGDFDLWGPGTLVTVSS[human IgG1 constant region cut from this listing]GGGGSGGGGSGGGGSGGGGSGGGGSGGGGS[human IgG1 Fc cut from this listing] light: ALVMTQPPASVSAAVGGTVTINCQASESISTWLAWYQQKPGQPPKLLIYYASTLASGVPSRFKGSGSGTQFTLTISGVECDDAATYYCAGHKSYSSDDFAFGGGTEVVVKGTVAAPSVFIFPPSDEQLKSGTASVVCLLNNFYPREAKVQWKVDNALQSGNSQESVTEQDSKDSTYSLSSTLTLSKADYEKHKVYACEVTHQGLSSPVTKSFNRGEC
260000 | 0.022 |  | 10 | 0.00054 | 54000 | 41.1 | Catabolic anti-mIgG2a 465 Fab-scFc (Fc fusion) heavy: EQLEESGGDLVKPGASLTLTCTASGFSFTSDYYMCWVRQAPGKGLEWIACHGAGDIHTTYYANWAKGRFTISKTSSTTVTLQMTTLTAADTATYFCARDTYNIGGYTGDFDLWGPGTLVTVSS[human IgG1 constant region cut from this listing]GGGGSGGGGSGGGGSGGGGSGGGGSGGGGS[human IgG1 Fc cut from this listing] light: ALVMTQPPASVSAAVGGTVTINCQASESISTWLAWYQQKPGQPPKLLIYYASTLASGVPSRFKGSGSGTQFTLTISGVECDDAATYYCAGHKSYSSDDFAFGGGTEVVVKGTVAAPSVFIFPPSDEQLKSGTASVVCLLNNFYPREAKVQWKVDNALQSGNSQESVTEQDSKDSTYSLSSTLTLSKADYEKHKVYACEVTHQGLSSPVTKSFNRGEC
